The data set relates to ATP. Kind of data set: switch fluorescence ratio, 500 uM ATP over buffer (Cy3 cluster intensity, sum of 5 cycles each) (fold (ratio)); higher = stronger signal-on switching upon ATP binding; sequences stand for … in TCGTCGGCAGCGTCAGATGTGTATAAGAGACAGTTTTTTTTTTTTTTTTTTTTTTTTT…TC. As to conditions: aptamer strand: ATP DNA aptamer (quencher-CACCTGGGGGAGTATTGCGGAGGAAGG + anchor), 100 nM annealed; ATP concentration: 500 uM; one replicate. In short, it runs like this:
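Five buffer/ATP imaging cycles were run on Cy3-labelled switching-strand clusters on a modified Illumina MiSeq flow-cell, with NaOH stripping and re-annealing between cycles. In each cycle, clusters annealed to 100 nM quencher-labelled ATP aptamer were imaged in selection buffer, then after 15 min with 500 uM ATP at 22 °C. Per cluster, the fluorescence ratio is summed target-cycle over summed buffer-cycle Cy3 intensity, averaged per switch-domain sequence. Only clusters within 100-1000 RFU were kept.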

Values marked as one replicate rest on one cluster of the flow cell; about a third of the high ones do not repeat.
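Note: ATP exposure 15 min at 22 °C before imaging.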

Consider CGGGAAAGTA, for which the switch fluorescence ratio was found to be 0.988.

As for ATGTGTATAC, the switch fluorescence ratio worked out at 1.04.

AAACACCCC: the switch fluorescence ratio amounted to 1.24.

For the sequence TGCCAACCTT, the switch fluorescence ratio was determined as 1.01.

For the sequence GGGTGAACGC, the switch fluorescence ratio stood at 1.07.

For GAGGGGTGCC, the switch fluorescence ratio came to 1.09.

Regarding TAACCGGGGA, the switch fluorescence ratio worked out at 1.03.

For the sequence ACCAACGGAG, the switch fluorescence ratio is 1.24.

Take ATAGCTCATG: the switch fluorescence ratio amounted to 0.973.

On to AGGAGGTCCC, for which the switch fluorescence ratio stood at 1.02.

With TGGTTCTGAG, the switch fluorescence ratio was 1.

Consider TTTTCGTCAG, for which the switch fluorescence ratio was 1.

AAGGACGTTA: the switch fluorescence ratio amounted to 1.07.

For AGGTTTTCAA, the switch fluorescence ratio was found to be 0.998.

Consider AGTAGAAGAA, for which the switch fluorescence ratio was 1.02.

With GATAGGGTTA, the switch fluorescence ratio stood at 0.99.

Take GCCAAAGTCG: the switch fluorescence ratio worked out at 1.03.

Take GGCTTTGGCA: the switch fluorescence ratio amounted to 0.959.

Consider CGTTCAAAGG, for which the switch fluorescence ratio was found to be 1.05.

Regarding CCAAGTAGCA, the switch fluorescence ratio came out at 1.03.

Turning to ACGAAAGAAG, the switch fluorescence ratio stood at 1.02.

On to ATTCATGTGA, for which the switch fluorescence ratio was determined as 0.981.

As to GCAACAACTA, the switch fluorescence ratio was 1.04.

In the case of TTTGTAACAA, the switch fluorescence ratio turned out to be 1.

As for TTAGGGCATG, the switch fluorescence ratio turned out to be 1.01.

For TGGTTGCTGG, the switch fluorescence ratio worked out at 0.972.

As to TTCTCGAGGG, the switch fluorescence ratio came out at 1.04.

CCCTGTAGTC: the switch fluorescence ratio amounted to 1.14.

As for AGGATCCGGG, the switch fluorescence ratio was 1.01.

In the case of CCAAGATGT, the switch fluorescence ratio was 1.

ACCGCGCCGT: the switch fluorescence ratio turned out to be 1.09.

Take TTTAGGAA: the switch fluorescence ratio was 0.995.

As to ACAGCAGTCG, the switch fluorescence ratio is 1.05.

On to GGGTTACGGC, for which the switch fluorescence ratio turned out to be 1.08.

Take GAAGCCAGGG: the switch fluorescence ratio is 1.13.

CACTTCCGAG: the switch fluorescence ratio worked out at 2.53.

As to CTCGTTGGAC, the switch fluorescence ratio came to 1.12.

As to TAAGGAGCGA, the switch fluorescence ratio turned out to be 1.05.

Consider TGATGCGCTT, for which the switch fluorescence ratio worked out at 0.988.

Consider GGGTACAGAA, for which the switch fluorescence ratio was 1.01.

As to AATTAGCCTA, the switch fluorescence ratio is 0.979.

As to TTGTCCTTG, the switch fluorescence ratio is 1.01.

Consider TGGATTTCAC, for which the switch fluorescence ratio amounted to 1.05.

As to CACTTGTCTG, the switch fluorescence ratio came out at 0.981.

As to GTTTGTTAGC, the switch fluorescence ratio was 0.983.

Regarding GTCGGTACTG, the switch fluorescence ratio was 1.01.

For TAAATTGGTG, the switch fluorescence ratio turned out to be 0.999.

As for GGAGAAAATT, the switch fluorescence ratio stood at 0.98.

As to GCAACAGGTC, the switch fluorescence ratio is 0.924.

Regarding GCTAGTTATC, the switch fluorescence ratio stood at 1.

For the sequence ATTTTCC, the switch fluorescence ratio amounted to 1.06.

Take CAAGCAATAG: the switch fluorescence ratio was determined as 4.35.

In the case of ATACAGTAAC, the switch fluorescence ratio is 1.14.

Turning to CATTCTGGCA, the switch fluorescence ratio stood at 1.04.

In the case of TTATGTGGA, the switch fluorescence ratio was determined as 1.03.

In the case of GCCCACTAGA, the switch fluorescence ratio came to 1.

For CTATATCGAT, the switch fluorescence ratio was 0.967.

On to TTTTCGGTGT, for which the switch fluorescence ratio was determined as 1.02.

For the sequence CGAGAAGGGC, the switch fluorescence ratio was found to be 1.05.

On to GGTCTTCAAG, for which the switch fluorescence ratio came to 0.998.

With ACGGACGGGT, the switch fluorescence ratio was 2.67.

As to TCGATATAGC, the switch fluorescence ratio was found to be 1.03.

Take ACTAAATGAG: the switch fluorescence ratio was found to be 1.02.

As to TAAGACATAC, the switch fluorescence ratio was found to be 2.33.

For AGTAGTGTTC, the switch fluorescence ratio worked out at 0.985.

For the sequence GCCCTTAGAC, the switch fluorescence ratio was 1.03.

On to AATCAACAGA, for which the switch fluorescence ratio was 1.02.

On to TCATGATAAA, for which the switch fluorescence ratio was determined as 0.959.

With AGTATCCAGC, the switch fluorescence ratio was 1.03.

With TAACGTAATA, the switch fluorescence ratio was found to be 1.35.

With ACGTGGTCAG, the switch fluorescence ratio was found to be 1.03.

AAACGCTACT: the switch fluorescence ratio turned out to be 1.75.

As for ATTGGGGTAG, the switch fluorescence ratio was 0.962.

For CGCGGTTCGT, the switch fluorescence ratio was 0.985.

As for CTATACAGTT, the switch fluorescence ratio is 1.03.

TCGAGATAGG: the switch fluorescence ratio turned out to be 0.997.

Turning to TAGCAGTGTT, the switch fluorescence ratio came to 0.986.

Regarding CACCTCGTTC, the switch fluorescence ratio is 0.986.

The values above are taken from the supplement of paper PMC10126150.
